{
  "source": "paper PMC12136788",
  "binders": {"B1": {"name": "chr9:21227606:21228173:-|CDS|ENSG00000234829|control|control|control (ssRNA)", "RNA": "GGGAGUUCUACAGUCCGACGAUCGCAGACCUUCAAUCUCUUCAGCACAGAGGACUCAUCUGCUGCUUGGGAACAGAGCCUCCUAGAAAAAUUUUCCACUGAACUUUACCAGCAACUGAAUAACCUGGAAGCAUGUGUGAUACACAACAGAGGAUUGAGCAUCA"}, "B2": {"name": "ENSG00000107863:be:win_1901|CDS|ENSG00000107863|bound_else_gene|NA|bound_elsewhere_windowed (ssRNA)", "RNA": "GGGAGUUCUACAGUCCGACGAUCCAAAACCAUCAUUUAGCCAGAAAUCAUUUGUUUCUAUCAAAGACCAAAGACCAGUAAAUCACUUGCAUCAGAACAGUCUGUUGAAUCAGCAGACAUGGGUAAGGACUGACAGUGCCCCCGCAACAGAGGAUUGAGCAUCA"}, "B3": {"name": "ENSG00000173757:stop:overlap|stop_codon|ENSG00000173757|stop_codon|NA|stop_codon (ssRNA)", "RNA": "GGGAGUUCUACAGUCCGACGAUCACCAGGCCCCCUCCCCAGCUGUGUGUCCCCAGGCUCACUAUAACAUGUACCCACAGAAGUAGGUGGCAUUCUUGUGGGGGUCCACAGGGGAGGAACUGGGGGCUUGGCCCCAGGCUGGACCAACAGAGGAUUGAGCAUCA"}, "B4": {"name": "ENSG00000070961:be:win_951|CDS|ENSG00000070961|bound_else_gene|NA|bound_elsewhere_windowed (ssRNA)", "RNA": "GGGAGUUCUACAGUCCGACGAUCUGAGAAUCGCAACAAAGCAAAAGCCCAGGAUGGUGCAGCCAUGGAAAUGCAGCCAUUGAAGAGUGAAGAAGGUGGAGAUGGUGAUGAAAAAGAUAAAAAGAAAGCAAAUUUGCCAAAAAACAACAGAGGAUUGAGCAUCA"}, "B5": {"name": "chr16:3727831:3727932:-|CDS|ENSG00000005339|unk|FALSE|bound_elsewhere (ssRNA)", "RNA": "GGGAGUUCUACAGUCCGACGAUCCGUCUCACCCCAGACUGGUUCCCCCCACCCCGGACUCGCAGUCACCAUGGCCAGCUCCAUAGAUCAGGGACACUUGGGGAACCCCGAACAGAGUGCAAUGCUCCCCCAGCUGAACACCCCCAACAGAGGAUUGAGCAUCA"}, "B6": {"name": "chr4:7762510:7762611:-|3pUTR|ENSG00000196526|msi1|total|mutant (ssRNA)", "RNA": "GGGAGUUCUACAGUCCGACGAUCGUGCAAUAUUUCUUGGAGAAUUUGGAUGCCUAAGGCAUAAAGGAAAAAAACAGAGUUCACCGUUUGAGCUGGUAUUUACCCCCUGGGUUUAAAAAUCAGAUUAACUUCUUGGUCUCCCGGCAACAGAGGAUUGAGCAUCA"}, "B7": {"name": "chr10:92030311:92030412:+|3pUTR|ENSG00000095564|unk|total|mutant (ssRNA)", "RNA": "GGGAGUUCUACAGUCCGACGAUCAUAUAAGAUUGAAACUGUAAAAUAUAUGCAACUGUGUGUUAUUUGCCGGAAAUGGUCACCCGAAAGAGCAAAAGAUUAUUCAGGUAUACAGGUUUUUUUUCAUUGUUCCGGAUUUUAACUCAACAGAGGAUUGAGCAUCA"}, "B8": {"name": "chr2:32377587:32377702:+|CDS|ENSG00000115760|unk|total|mutant (ssRNA)", "RNA": "GGGAGUUCUACAGUCCGACGAUCGGUGAAAUGUCAGUAUAUCUCUGCUGUGGAUAAAGUUAUAUUUGUGGAUGAUUAUGCAGCCGGGUGCCGGAAGGACCUUAAUGGAAUCUUGUUGUCCGACACUGCUCUGCAAACUCCAGUCAACAGAGGAUUGAGCAUCA"}, "B9": {"name": "chr1:193029531:193029688:-|CDS|ENSG00000116750|unk|total|mutant (ssRNA)", "RNA": "GGGAGUUCUACAGUCCGACGAUCUUGAUAUCUUCACUUUUAUAUUUUACCGGUAAUUAAUAAUGCUUGUGCUACUCAAGCCACCGUGAGUGUGUUACUGAACUGUACCCACCAGGAUGUCCAUUCCGGCGAGACAUUAUCAGACAACAGAGGAUUGAGCAUCA"}, "B10": {"name": "chr11:48137134:48137235:+|CDS|ENSG00000149177|msi1|FALSE|unique (ssRNA)", "RNA": "GGGAGUUCUACAGUCCGACGAUCCACGUACUCCUACUGCCUUCUUAUUGAGAAGGCUGGAAAUUCCAGCAACGCAACACAAGUAGUCACGGACAUUGGAAUUACUGACGCUACAGUCACUGAAUUAAUACCUGGCUCAUCAUACAACAGAGGAUUGAGCAUCA"}, "B11": {"name": "chr1:205337401:205337592:-|CDS|ENSG00000162873|control|control|control (ssRNA)", "RNA": "GGGAGUUCUACAGUCCGACGAUCGAAGAACAAAUGGGAGAUCCUCCCUGCCAUGCCCACACCCCGCUGUGCCUGCUCCAGCAUAGUCGUCAAGAACUGCCUCCUCGCCGUGGGAGGUGUCAACCAGGGUCUGAGUGACGCAGUCAACAGAGGAUUGAGCAUCA"}, "B12": {"name": "chr1:203709306:203709407:+|CDS|ENSG00000058668|msi1|FALSE|unique (ssRNA)", "RNA": "GGGAGUUCUACAGUCCGACGAUCUCCAGAGAAGGAGGGAGGCCUGCCUCGGCAGGUGGGCAACAAGACCGAGUGUGCUCUGCUAGGCUUUGUCACAGAUCUGAAGCAGGAUUAUCAGGCUGUGCGUAAUGAAGUGCCCGAGGACAACAGAGGAUUGAGCAUCA"}, "B13": {"name": "chr12:26337790:26337891:-|3pUTR|ENSG00000123104|unk|total|mutant (ssRNA)", "RNA": "GGGAGUUCUACAGUCCGACGAUCAAGAUCUAUGCCGAAUAUAAAGGAAGCCUGAACCAAUCCUUCCACAUACUGUUAAGAUGCCGACUUGGAACAAAGCUGUUGGGACCCAGAGCAAUGAAUUUUUGAACUGAAGCUACUGGUCAACAGAGGAUUGAGCAUCA"}, "B14": {"name": "ENSG00000131370:stop:overlap|stop_codon|ENSG00000131370|stop_codon|NA|stop_codon (ssRNA)", "RNA": "GGGAGUUCUACAGUCCGACGAUCAGAAGUUAAAUCAGUCCACGGAUGAUAUCAACAGACGGGAGACUGAACUUGAGGUCCAGUAGGUGUUUGCAGAUCCCUUCUUAAGCCUCAACUGUGUUUCCUCGGUUUCCCCUGGCUGCACAACAGAGGAUUGAGCAUCA"}, "B15": {"name": "chr2:32508095:32508220:+|CDS|ENSG00000115760|unk|total|mutant (ssRNA)", "RNA": "GGGAGUUCUACAGUCCGACGAUCAGCCGAAGCCGCUUCUGCUGUCUGCCUCCGACUACAUCGUCCACGGGAUGCCAGCACAUCCGGCCUUUCACAAAUUAAAUUAUUGGGGCUCACUGCUUUUGGUACCACCUCUUCUGCAACCAACAGAGGAUUGAGCAUCA"}, "B16": {"name": "chr7:94910433:94910544:+|CDS|ENSG00000158528|unk|total|mutant (ssRNA)", "RNA": "GGGAGUUCUACAGUCCGACGAUCCUGGAAAAAACAGAUGGCUCAGUUGUUAAGUUGGAGUCUUCUGUUUCUGAACGAAUCCGCCGAUUUGACACUAUGUACGAUGGCCCUUCAUAUUCCAAGUUCACUGAGACUCGAAAGAUGCAACAGAGGAUUGAGCAUCA"}, "B17": {"name": "ENSG00000170522:stop:overlap|stop_codon|ENSG00000170522|stop_codon|NA|stop_codon (ssRNA)", "RNA": "GGGAGUUCUACAGUCCGACGAUCUCUGCCAUUUCUUCUUUGAGGCCUACAUCGGCAAAAUGAGGAAAACAACGAAAGCUGAAUAGUGUUGGAACUGAGGAGGAAGCCAUAGCUCAGGGUCAUCAAGAAAAAUAAUAGACAAAACAACAGAGGAUUGAGCAUCA"}, "B18": {"name": "chr7:74121655:74121756:+|3pUTR|ENSG00000106683|msi1|total|mutant (ssRNA)", "RNA": "GGGAGUUCUACAGUCCGACGAUCGCCCCUUUCCACACGCCGCUGCCCCAGCAACCCUGUUCACGCUCCACCUGUCUGGUCCACCGCUCCCUGGAGGCUGGGCCAGGAGGCAGCCUCCGAACCAUGCCCCAUAUAACGCUUGGGCAACAGAGGAUUGAGCAUCA"}, "B19": {"name": "chr1:246839951:246840052:-|3pUTR|ENSG00000153207|msi1|FALSE|bound_elsewhere (ssRNA)", "RNA": "GGGAGUUCUACAGUCCGACGAUCAAAUGUAAAAUAAAUCUGUUUAUGGAUAUUGAGUGCAUCUUGUAUGUGCCUAAUAUUGAUAGGAUGAGAUGUCUGAACAAAUUUUUAUAAUAUUGCUGUGAAGGAGCUUGCUAUUGAACCCAACAGAGGAUUGAGCAUCA"}, "B20": {"name": "chr1:45660537:45660647:-|5pUTR|ENSG00000159592|unk|total|mutant (ssRNA)", "RNA": "GGGAGUUCUACAGUCCGACGAUCAUUUUUGAUCUAUUACCUUGAUGACAUUAUUUGUCCACACUUGAGCCCAUCUGUCUUUCCCGCUAUGACCUUGUUAUGAACAGUAUUUGCACUCGGUGCAAAUAUCCAUGUCUUACCUAACAACAGAGGAUUGAGCAUCA"}, "B21": {"name": "chr13:20822168:20822271:-|CDS|ENSG00000132953|unk|total|mutant (ssRNA)", "RNA": "GGGAGUUCUACAGUCCGACGAUCUCGAAAAAUCAGAGAAGAUUCAGAUAUGGCACAAGAUUCUCUGCAGUGCCUUGCCCAGUCCGCUUCUCUUCAUGGACCCAUCUUCCCAGAUGAAGGAUCACAAGUUGAUUAUCCCGCACACAACAGAGGAUUGAGCAUCA"}, "B22": {"name": "chr2:147927148:147927248:+|CDS|ENSG00000121989|msi1_unk|total|mutant (ssRNA)", "RNA": "GGGAGUUCUACAGUCCGACGAUCUGAAACCAUUGAAGAAUGUUGGGAUCACGACGCAGAAGCCAGGUUAUCAGCUGGAUGUGCCGGUGAAAGAAUUACCCAGAUGCAGAGACUAACAAAUAUUAUUACCACAGAGGACAUUGUCAACAGAGGAUUGAGCAUCA"}},
  "note": "This is one part of the list.",
  "data": [
    {"target": "T1, UNK ZnF1-6 (called full-length) (human, UniProt Q9C0B0 30-357)", "T1 sequence": "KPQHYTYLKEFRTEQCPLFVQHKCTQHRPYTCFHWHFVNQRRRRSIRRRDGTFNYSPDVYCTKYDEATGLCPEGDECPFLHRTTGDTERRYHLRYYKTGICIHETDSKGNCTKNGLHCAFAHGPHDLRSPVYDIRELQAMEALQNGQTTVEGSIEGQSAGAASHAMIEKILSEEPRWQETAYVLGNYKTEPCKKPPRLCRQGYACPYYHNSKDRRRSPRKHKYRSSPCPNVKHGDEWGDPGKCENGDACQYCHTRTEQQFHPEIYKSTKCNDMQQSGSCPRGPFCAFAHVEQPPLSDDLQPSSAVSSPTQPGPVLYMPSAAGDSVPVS", "assay": "nsRBNS (natural sequence RNA bind-n-seq); RBNS binding buffer (assumed for nsRBNS): 25 mM Tris pH 7.5, 150 mM KCl, 3 mM MgCl2, 0.01% Triton X-100, 500 ug/ml BSA, 20 U/ml SUPERase-In, 4 C; UNK is unkempt and MSI1 is Musashi-1; names of the RNAs are library labels; protein concentration not given here; high values mean tight binding", "units": {"binding signal": "enrichment R"}, "values": [
      {"binder": "B1", "binding signal": 0.842},
      {"binder": "B2", "binding signal": 0.837},
      {"binder": "B3", "binding signal": 0.566},
      {"binder": "B4", "binding signal": 0.532},
      {"binder": "B5", "binding signal": 0.891},
      {"binder": "B6", "binding signal": 0.35},
      {"binder": "B7", "binding signal": 0.491},
      {"binder": "B8", "binding signal": 0.557},
      {"binder": "B9", "binding signal": 0.805},
      {"binder": "B10", "binding signal": 0.545},
      {"binder": "B11", "binding signal": 0.869},
      {"binder": "B12", "binding signal": 0.724},
      {"binder": "B13", "binding signal": 0.436},
      {"binder": "B14", "binding signal": 0.85},
      {"binder": "B15", "binding signal": 0.577},
      {"binder": "B16", "binding signal": 0.403},
      {"binder": "B17", "binding signal": 0.591},
      {"binder": "B18", "binding signal": 1.17},
      {"binder": "B19", "binding signal": 0.5},
      {"binder": "B20", "binding signal": 0.322},
      {"binder": "B21", "binding signal": 0.431},
      {"binder": "B22", "binding signal": 0.932}
    ]}
  ]
}
